Hit rate of the full screen: of about 48,000 compounds, about 550 (1.1%) were called active. Roughly 4% stayed inconclusive and do not appear here. Cut-off read from the data, not from the text of the source: active = potency below about 15 µM; inconclusive = mostly about 16 µM to 33 µM; inactive = weaker than that. The list shows a part of the results.
Target: Lysosomal acid glucosylceramidase (Homo sapiens) (UniProt P04062)
Test: Glucocerebrosidase;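 note: the screen sought inhibitors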
Details: purified enzyme, resorufin glucoside fluorescence (screen aimed at inhibitors), 20 min; series mostly up to 77 µM
How it was run: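 Wild-type enzyme at 0.2 nM final in 50mM citric acid/KH2PO4, 10mM sodium taurocholate, 0.01% tween-20, pH 5.9, with resorufin beta-D-glucopyranoside at 30 uM final. Compounds titrated, 20 min at RT, red fluorescence read; AC50 from titration.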
Potency is the fitted concentration of half-maximal effect.

Sequence of UniProt P04062 (P04062 whole entry, looked up): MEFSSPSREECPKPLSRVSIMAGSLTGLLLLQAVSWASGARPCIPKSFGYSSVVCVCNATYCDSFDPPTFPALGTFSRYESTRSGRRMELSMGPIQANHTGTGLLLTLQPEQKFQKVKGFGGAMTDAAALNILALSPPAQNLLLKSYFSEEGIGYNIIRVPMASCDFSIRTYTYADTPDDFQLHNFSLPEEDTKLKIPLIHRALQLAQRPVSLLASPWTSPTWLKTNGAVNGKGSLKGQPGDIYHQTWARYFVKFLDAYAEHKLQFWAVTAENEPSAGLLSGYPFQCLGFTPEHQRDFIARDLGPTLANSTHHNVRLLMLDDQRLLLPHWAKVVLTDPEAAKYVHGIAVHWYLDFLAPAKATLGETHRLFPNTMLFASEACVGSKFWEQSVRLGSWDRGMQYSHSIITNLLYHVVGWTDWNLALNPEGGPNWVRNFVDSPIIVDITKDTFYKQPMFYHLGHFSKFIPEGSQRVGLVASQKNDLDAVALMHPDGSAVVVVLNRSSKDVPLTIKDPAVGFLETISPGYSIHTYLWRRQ

Structure (SMILES)	Potency
O=C(Nc1ccccc1)N1CCC(C(=O)N(Cc2ccco2)Cc2cccs2)CC1	inactive: > 76.9 µM
Cc1ccc(O)c(NC(=O)c2cccc(NC(=O)c3ccco3)c2)c1	inactive: > 76.9 µM
CCOC(=O)c1cc2cc(C)ccc2[nH]1	inactive: > 76.9 µM
Cn1c(-c2ccc(Br)o2)nc2cc(Br)ccc21	inactive: > 76.9 µM
CCOC(=O)COc1ccc2c(c1)C(=O)CC(C)(c1cccnc1)O2 (stereo unspecified)	inactive: > 76.9 µM
CCOCCCNC(=O)C1CCN(C(=O)Nc2ccc(C)cc2)CC1	inactive: > 76.9 µM
O=C(c1coc(=O)c2ccccc12)N1CCN(Cc2ccccc2)CC1	inactive: > 76.9 µM
CCNCCNC(=O)c1c(O)c2ccccc2n(CC)c1=O	inactive: > 76.9 µM
CCN(CC)C(=O)CSc1nnc([C@H](CCSC)NC(=O)OC(C)(C)C)o1	inactive: > 76.9 µM
O=C(CN1C(=O)c2cccc3cccc1c23)N1CCN(c2ccccc2)CC1	inactive: > 76.9 µM
Cc1cc(N2CCN(C)CC2)nc2ccc(NC(=O)CCC(=O)NCc3ccco3)cc12	inactive
COc1ccc(-c2noc(-c3ccc(Cl)cc3)n2)cc1	inactive: > 76.9 µM
NC12CC3CC(C1)CC(CO)(C3)O2	inactive: > 76.9 µM
COCCNC(=O)C(c1ccco1)N(C(=O)Cn1nnc2ccccc21)c1ccc(C)cc1C (stereo unspecified)	inactive: > 76.9 µM
COc1ccc2c(CC(=O)OCC(=O)c3ccc(F)cc3)coc2c1	inactive: > 76.9 µM
Cn1c(SCc2ccc(C#N)cc2)nnc1-c1ccccc1	inactive: > 76.9 µM
Cc1occc1C(=O)Nc1cc(=O)n(C)c(=O)n1C	inactive: > 76.9 µM
COc1cc([C@H]2[C@@H]3CCCC[C@]3(O)CCN2CC(=O)Nc2ccc(C)cc2C)ccc1O	inactive: > 76.9 µM
COc1cccc(NC(=O)C2CCCN2C(=O)OCc2ccccc2)c1 (stereo unspecified)	inactive
Cc1cc(NS(=O)(=O)c2ccc(OCCNS(C)(=O)=O)cc2)no1	inactive: > 76.9 µM
Cc1cccc(-c2c3c(=O)n(C)c(=O)n(C)c3cn2-c2ccccc2O)c1	inactive: > 76.9 µM
CC1(C)CC(=O)c2cnc(NCc3ccco3)nc2C1	inactive: > 76.9 µM
Cc1nn(Cc2ccccc2)c(C)c1NC(=O)c1cc(-c2cccs2)on1	inactive: > 76.9 µM

Structure (SMILES)	Potency
O=C(OCc1csc(-c2ccccc2)n1)c1cccs1	inactive: > 76.9 µM
O=C(O)c1ccc2c(c1)CC(c1ccccc1)OC2=O (stereo unspecified)	inactive: > 76.9 µM
CCCCN(C(=O)NC(=O)Nc1c(C)cc(C)cc1C)S(C)(=O)=O	inactive: > 76.9 µM
CC(C)OC(=O)c1cn(-c2ccccc2)nc1-c1ccco1	inactive: > 76.9 µM
Cc1cc(=O)oc2cc(OCC(=O)N3c4ccccc4CC3C)ccc12 (stereo unspecified)	inactive: > 76.9 µM
CCS(=O)(=O)N1CCC(c2nc(-c3ccc(C(F)(F)F)cc3)no2)CC1	inactive: > 76.9 µM
N/C(=N\S(=O)(=O)c1cccs1)c1ccccc1	inactive: > 76.9 µM
O=C(O)CSCCC(=O)Nc1ccc(F)cc1	inactive: > 76.9 µM
c1ccc2c(c1)nnn2Cc1nnc2sc(-c3ccncc3)nn12	inactive: > 76.9 µM
CC1CCCCN1CCNC(=O)Cn1nc(-c2ccccc2)ccc1=O (stereo unspecified)	inactive: > 76.9 µM
COc1ccccc1OC(=O)c1ccc(SC)cc1OC	inactive: > 76.9 µM
C=C(C)CSc1nc(N)cc(=O)[nH]1	inactive: > 76.9 µM
CC(Sc1nnc(-c2ccc(Cl)cc2)n1C)C(N)=O (stereo unspecified)	inactive: > 76.9 µM
CCC(=O)N1CCc2cc(S(=O)(=O)NC(C(=O)NC(C)c3ccccc3)C(C)C)ccc21 (stereo unspecified)	inactive: > 76.9 µM
COc1cccc(NC(=O)c2oc3ccccc3c2NC(=O)c2ccc3c(c2)OCO3)c1	inactive: > 76.9 µM
COc1ccc(C(=O)NC2(C(F)(F)F)N=C3SCCN3C2=O)cc1 (stereo unspecified)	inactive: > 76.9 µM
C/C(=C\C#N)n1nc(C)cc1N	inactive: > 76.9 µM
CCOC(=O)CCc1c(C)c2ccc(O)cc2oc1=O	inactive: > 76.9 µM
COc1ccc(C)cc1NC(=O)COCC(=O)O	inactive: > 76.9 µM
O=C(Nc1nccs1)c1ccc(S(=O)(=O)c2ccccc2)cc1	inactive: > 76.9 µM
CCCCOC(=O)CNc1nnc(SCC(=O)OCC)[nH]c1=O	inactive: > 76.9 µM
O=C1c2ccccc2S(=O)(=O)N1Cc1nc2ccccc2s1	inactive: > 76.9 µM
Cc1c(NC(=O)C(C#N)=C2CCCCC2)c(=O)n(-c2ccccc2)n1C	inactive: > 76.9 µM

Structure (SMILES)	Potency
CCCCCCn1c(N(CC)CC)nc2c1c(=O)[nH]c(=O)n2C	inactive: > 76.9 µM
COC(=O)C1=C(C)Nc2nnnn2C1c1ccco1 (stereo unspecified)	inactive: > 76.9 µM
Cc1cc(NC(=O)c2ccc(NC(=O)c3cccs3)cc2)no1	active: 2.39 µM
O=C(CSCc1cccc(F)c1)N1CCN(c2ccccc2)CC1	inactive: > 76.9 µM
COc1cc(-c2cc(C(=O)O)c3c(OC)c(OC)c(OC)cc3n2)ccc1O	inactive: > 76.9 µM
O=C(c1c[nH]c2ccc(S(=O)(=O)N3CCC4(CC3)OCCO4)cc2c1=O)N1CCOCC1	inactive: > 76.9 µM
CCOc1ccc(NC(=O)COC(=O)c2cccnc2)cc1	inactive: > 76.9 µM
COc1ccc(N(C(C)C(=O)NC2CCCCCC2)S(C)(=O)=O)cc1 (stereo unspecified)	inactive: > 76.9 µM
N#CC1=C(N)OC2=C(C(=O)CCC2)C12CCN(C(=O)OCc1ccccc1)CC2	inactive: > 76.9 µM
Cc1ccc2c(c1)nnn2C1CCN(CC(=O)Nc2ccccc2N2CCOCC2)CC1	inactive: > 76.9 µM
Cc1ccc(OCC(=O)Nc2nnn(C)n2)c(C)c1	inactive: > 76.9 µM
CCOCCCn1c(=S)[nH]c2cc(C(=O)N3CCC(C(N)=O)CC3)ccc2c1=O	inactive: > 76.9 µM
CCC(=O)NC(Nc1cccc(C)n1)(C(F)(F)F)C(F)(F)F	inactive: > 76.9 µM
CCn1c(-c2ccc(F)cc2)n[nH]c1=S	inactive: > 76.9 µM
Cc1cccc(-n2nnnc2SCC(=O)c2cc(C)n(Cc3ccco3)c2C)c1	inactive: > 76.9 µM
O=C1CC(N2CCC(c3nc4ccccc4s3)CC2)C(=O)N1 (stereo unspecified)	inactive: > 76.9 µM
COc1ccc(N2C(C)=CS/C2=C(/C#N)c2nnc(N3CCOCC3)n2-c2ccccc2)cc1	inactive: > 76.9 µM
O=C(COc1ccc(N2CC(C(=O)O)CC2=O)cc1)Nc1cccc(C(F)(F)F)c1 (stereo unspecified)	inactive: > 76.9 µM
CCCCn1nc(CC(=O)O)c2ccccc2c1=O	inactive: > 76.9 µM
Cc1ccc(S(=O)(=O)N2CCC(C(=O)N[C@@H](C)C(=O)NCCc3ccccc3)CC2)cc1	inactive: > 76.9 µM
CC1(C)CC(=O)C2=C(C1)NC(Nc1nc3ccccc3o1)=NC21CCCC1	inactive: > 76.9 µM
CCn1cc(C(=O)N=c2sc3ccccc3n2C)c(=O)c2ccc(C)nc21	inactive: > 76.9 µM
CCOC(=O)C1CCCN(Cc2nc(N)nc(Nc3ccc(Cl)cc3)n2)C1 (stereo unspecified)	inactive: > 76.9 µM

Structure (SMILES)	Potency
O=C(CC1SC2=NCCN2C1=O)Nc1ccc(Cl)cc1 (stereo unspecified)	inactive: > 76.9 µM
COc1ccc(CNC(=O)c2ccc(=O)oc2)cc1OC	inactive: > 76.9 µM
CCOC(=O)c1csc(NC(=O)c2ccc(S(=O)(=O)N(CC)CC)cc2)n1	inactive: > 76.9 µM
O=S(=O)(c1ccc(-c2csc(-c3cccnc3)n2)cc1)N1CCCC1	inactive: > 76.9 µM
CCCCn1c(SCC(N)=O)nnc1-c1cc(OC)c(OC)c(OC)c1	inactive: > 76.9 µM
CC1CCCCC1NC(=O)COc1ccc(-n2cnnn2)cc1 (stereo unspecified)	inactive: > 76.9 µM
CC1CCCN(c2nc3ccsc3c(=O)s2)C1 (stereo unspecified)	inactive: > 76.9 µM
Cc1ccc(CSc2nnc(-c3ccccn3)n2C)cc1	inactive: > 76.9 µM
CCC(Sc1nc2n[nH]c(C)c2c(=N)n1-c1cccc(Cl)c1C)C(=O)N(CC)CC (stereo unspecified)	inactive: > 76.9 µM
Cc1c(NC(=O)c2cccc(NC(=O)c3ccco3)c2)cccc1C(=O)O	inactive: > 76.9 µM
COc1ccc(C(NC(=O)C(C)(C)C)NC(=O)C(C)(C)C)cc1	inactive: > 76.9 µM
COc1ccc(NC(=O)C2CCCCN2CC(=O)OCc2ccccc2)cc1OC (stereo unspecified)	inactive: > 76.9 µM
N#Cc1cc2sc3nc4ccccc4n3c2cc1C#N	inactive: > 76.9 µM
COC(=O)C(C)Sc1nc2c([nH]c3ccccc32)c(=O)n1C (stereo unspecified)	inactive: > 76.9 µM
COc1ccc2[nH]c(=O)c(CN(CCc3ccccc3)Cc3nnnn3CC3CCCO3)cc2c1 (stereo unspecified)	inactive: > 76.9 µM
COc1ccc(S(=O)(=O)N(C)CC(=O)Nc2ccccc2C(F)(F)F)cc1OC	inactive: > 76.9 µM
CCOC(=O)c1cnc(SC2CC(=O)N(c3ccc(OC)c(OC)c3)C2=O)nc1N (stereo unspecified)	inactive: > 76.9 µM
N#C/C(=C\c1ccc[nH]1)Sc1nc2ccccc2s1	inactive: > 76.9 µM
CCCCn1nnc(NC(=O)c2ccco2)n1	inactive: > 76.9 µM
CCCn1c(SCc2ccccc2)nc2c1c(=O)[nH]c(=O)n2C	inactive: > 76.9 µM
O=C(CS(=O)CC(=O)Nc1cccc2c1CCCC2)Nc1ccc(F)cc1 (stereo unspecified)	inactive: > 76.9 µM
CC(Sc1nnc(COc2ccc3ccccc3c2)n1C)C(=O)O (stereo unspecified)	inactive: > 76.9 µM

Reference: PubChem BioAssay AID360 (National Center for Advancing Translational Sciences (NCATS), 2006)
